About 550 (1.1%) of roughly 48,000 compounds were called active. Not shown: some 4% with an inconclusive outcome. Rule as the data show it: active = potency below about 15 µM; inconclusive = mostly about 16 µM to 33 µM; inactive = weaker than that. The list shows a part of the results. Some results are limits rather than exact numbers.
Potency is read from the fitted curve at half-maximal effect.

The target in the assay is Lysosomal acid glucosylceramidase (Homo sapiens) (UniProt P04062). The assay can be described thus: Glucocerebrosidase.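 Also: the screen sought inhibitors.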 To be noted: purified enzyme, resorufin glucoside fluorescence (screen aimed at inhibitors), 20 min; series mostly up to 77 µM. The gist of the method: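 Compounds titrated against 0.2 nM normal enzyme, 30 uM resorufin beta-D-glucopyranoside substrate, citrate/phosphate buffer with taurocholate and tween-20, pH 5.9. Reaction ran 20 min at room temperature; fluorescence (Ex 548/Em 600) gave AC50.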
UniProt P04062, sequence (P04062 whole entry, looked up): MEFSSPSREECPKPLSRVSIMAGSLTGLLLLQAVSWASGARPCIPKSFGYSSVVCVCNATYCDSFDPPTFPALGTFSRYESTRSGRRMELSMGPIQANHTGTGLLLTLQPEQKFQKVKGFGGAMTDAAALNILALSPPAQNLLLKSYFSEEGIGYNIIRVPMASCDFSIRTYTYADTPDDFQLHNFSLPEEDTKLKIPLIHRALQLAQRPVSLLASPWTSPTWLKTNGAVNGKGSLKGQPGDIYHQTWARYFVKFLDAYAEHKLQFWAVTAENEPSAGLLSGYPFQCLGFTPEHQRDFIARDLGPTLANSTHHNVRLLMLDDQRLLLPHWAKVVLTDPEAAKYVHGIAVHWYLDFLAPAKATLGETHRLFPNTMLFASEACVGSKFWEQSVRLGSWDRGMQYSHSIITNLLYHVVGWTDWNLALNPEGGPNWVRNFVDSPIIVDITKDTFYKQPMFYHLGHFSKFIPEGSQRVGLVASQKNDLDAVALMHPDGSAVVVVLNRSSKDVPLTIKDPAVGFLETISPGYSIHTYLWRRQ
With `CCN(CC)CCCN1C(=O)C(O)=C(C(=O)c2cc3ccccc3o2)C1c1ccccn1` (stereo not given), the Potency is inactive: > 76.9 µM.

As to `CCN1CCN(Cc2c(C)[nH]c3ccc(C(=O)OC)cc3c2=O)CC1`, the Potency was inactive: > 76.9 µM.

Turning to `C=CCn1c(SCc2csc(C)n2)nc2scc(-c3ccc(C)o3)c2c1=O`, the Potency was inactive: > 76.9 µM.

With `CCOC(=O)Cc1csc(NC(=O)CSc2nnc(C3CC3)n2C)n1`, the Potency is inactive: > 76.9 µM.

With `CCOC(=O)N1CCN(Cc2nc3c(c(=O)n(C)c(=O)n3C)n2CCCc2ccccc2)CC1`, the Potency was inactive: > 76.9 µM.

With `CC(=O)c1ccc(OC(=O)C2CC(=O)N(c3cccc(C)c3)C2)cc1` (stereo not given), the Potency is inactive: > 76.9 µM.

For the molecule `CCN(c1ccccc1)S(=O)(=O)c1ccc(F)cc1C`, the Potency was inactive: > 76.9 µM.

In the case of `CCCn1c(N2CCN(S(=O)(=O)Cc3ccccc3)CC2)nc2ccccc21`, the Potency is inactive: > 76.9 µM.

For the molecule `NC(=O)c1c(NC(=O)CSc2nnc(-c3ccco3)n2-c2ccccc2)sc2c1CCC2`, the Potency was inactive: > 76.9 µM.

For the molecule `COC(=O)CN(C#N)c1nc(SC)nc(N(C)C)n1`, the Potency was inactive: > 76.9 µM.

In the case of `CCOC(=O)N1CCN(CC(=O)n2c(C)c(C)c3ccccc32)CC1`, the Potency is inactive: > 76.9 µM.

On to `COC(=O)[C@H](CCSC)NC(=O)N1CCN(c2cccc(C(F)(F)F)c2)CC1`, for which the Potency was inactive: > 76.9 µM.

On to `N#Cc1cn(CC(=O)NCc2cccnc2)c2ccccc12`, for which the Potency is inactive: > 76.9 µM.

For the molecule `O=C(O)c1cc(CN2CCOCC2)oc1-c1ccccc1`, the Potency was inactive: > 76.9 µM.

As to `O=C(Nc1ccc2c(c1)OCO2)C1CCCN1C(=O)Nc1cccc(F)c1` (stereo not given), the Potency was inactive: > 76.9 µM.

In the case of `CC(C)(C)NC(=O)CN(C(=O)CS(=O)CC(=O)Nc1ccc(F)cc1)c1ccccc1` (stereo not given), the Potency was inactive: > 76.9 µM.

In the case of `Cc1ccc(C(=O)OC2CCOC2=O)cc1NC(=O)c1ccco1` (stereo not given), the Potency was inactive: > 76.9 µM.

Regarding `C=CCn1c(SCc2c(F)cccc2Cl)nnc1-c1ccco1`, the Potency was inactive: > 76.9 µM.

`COc1ccc(NC(=O)CSc2nc3sc(C)c(C)c3c(=O)n2Cc2ccco2)cc1`: the Potency was inactive: > 76.9 µM.

With `O=C(CN1C(=O)C2CC=CCC2C1=O)Nc1ccc(-c2nnc3n2CCCCC3)cc1` (stereo not given), the Potency was inactive: > 76.9 µM.

Consider `CCC(NS(=O)(=O)c1ccc(OC)cc1)C(=O)O` (stereo not given), for which the Potency was inactive: > 76.9 µM.

`CCOC(=O)c1cc2sc(C)cc2n1CC(=O)N1CCOCC1`: the Potency is inactive: > 76.9 µM.

With `COC(=O)Cn1cnc2c(C#N)c3n(c2c1=O)CCCCC3`, the Potency was inactive: > 76.9 µM.

Regarding `CN=c1scc(C)n1/N=C/c1ccc2c(c1)OCO2`, the Potency is inactive: > 76.9 µM.

As to `N#Cc1c(Nc2ccccc2)c(C=NCCN2CCOCC2)c[nH]c1=O`, the Potency was inactive: > 76.9 µM.

On to `CCC(C)(C)n1nnnc1C(c1ccccn1)N1CCOCC1` (stereo not given), for which the Potency was inactive: > 76.9 µM.

On to `Cc1ccnc(-n2sc3ccccc3c2=O)n1`, for which the Potency entry was “inactive”.

As for `COC(=O)CN1CCN(C(c2ccccc2)c2ccccc2)CC1`, the Potency was inactive: > 76.9 µM.

Take `CCCS(=O)(=O)N1CCCC(C(=O)NCCN(CC)c2ccccc2)C1` (stereo not given): the Potency is inactive: > 76.9 µM.

For the molecule `CC[C@@H](C)[C@H](NC(=O)C1CCN(C(=O)[C@@H](NS(=O)(=O)c2ccc(C)cc2)C(C)C)CC1)C(=O)O`, the Potency is inactive: > 76.9 µM.

For the molecule `O=C(O)C1CC(=O)N(c2ccc(OCc3ccccc3Cl)cc2)C1` (stereo not given), the Potency is inactive: > 76.9 µM.

For `COc1cc2c(cc1OC)CN(c1ccc(-c3ccccc3OC)nn1)CC2`, the Potency is inactive: > 76.9 µM.

As for `COc1ccc(O)c(-c2cc(-c3cccs3)[nH]n2)c1`, the Potency is inactive: > 76.9 µM.

In the case of `CC1(C)OC(=O)C(=CNC(Cc2c[nH]c3ccccc23)C(=O)O)C(=O)O1` (stereo not given), the Potency is inactive: > 76.9 µM.

For `CCOC(=O)N1CCN(S(=O)(=O)c2c(C)cc(C)cc2C)CC1`, the Potency was inactive: > 76.9 µM.

Consider `O=C(NCc1ccco1)c1ccc(CS(=O)(=O)Cc2ccc(Cl)cc2)o1`, for which the Potency is inactive: > 76.9 µM.

Take `O=C(Cc1cccs1)OCC(=O)c1ccco1`: the Potency is inactive: > 76.9 µM.

Turning to `c1ccc2c(c1)OCC(c1nnc3sc(-c4ccc5c(c4)OCO5)nn13)O2` (stereo not given), the Potency was inactive: > 76.9 µM.

Consider `COC(=O)c1ccc(Oc2cc(C)nc(NCc3ccccc3)n2)cc1`, for which the Potency entry was “inactive”.

With `COc1ccc(OC)c(C2C(C(C)=O)=C(O)C(=O)N2CCC(=O)O)c1` (stereo not given), the Potency was inactive: > 76.9 µM.

Take `COc1ccc(CNC(=O)C2CCCN(c3nc4ccccc4o3)C2)c(OC)c1` (stereo not given): the Potency is inactive: > 76.9 µM.

Regarding `Cc1cnc(SCCc2ccncc2)nc1C`, the Potency is inactive: > 76.9 µM.

Take `COC(=O)C1=C(C)N(Cc2ccco2)C(=O)C1`: the Potency is inactive: > 76.9 µM.

Consider `Cc1c(N=Cc2c(O)n(Cc3ccco3)c(=O)c3ccccc23)c(=O)n(-c2ccccc2)n1C`, for which the Potency is inactive: > 76.9 µM.

Consider `O=C1NCC(CN(c2ccccc2)c2ccccc2)O1` (stereo not given), for which the Potency was inactive: > 76.9 µM.

As to `N#Cc1c(NC(=O)Cn2cnc3ccccc3c2=O)oc(-c2ccccc2)c1-c1ccccc1`, the Potency is inactive: > 76.9 µM.

Take `COc1cccc(C2=NOC(C(=O)N3CCOCC3)C2)c1` (stereo not given): the Potency is inactive: > 76.9 µM.

For the molecule `CCOC(=O)/C(C(N)=NCCO)=C(/O)c1ccccc1`, the Potency was inactive: > 76.9 µM.

With `O=S1(=O)C=CC(Sc2nc3ccccc3[nH]2)C1` (stereo not given), the Potency was inactive: > 76.9 µM.

Regarding `COCc1nnc(NC(=O)CCc2ccccc2)s1`, the Potency is inactive: > 76.9 µM.

As to `COc1cc2c(C(=O)NCc3ccc4c(c3)OCO4)cn(CC(C)C)c(=O)c2cc1OC`, the Potency is inactive: > 76.9 µM.

For the molecule `O=C(CSc1nnc2c(n1)[nH]c1ccc(F)cc12)OCc1ccccc1`, the Potency is inactive: > 76.9 µM.

Take `O=C(C(Cc1ccccc1)N1C(=O)C2C3C=CC(C3)C2C1=O)N1CCCCCC1` (stereo not given): the Potency is inactive: > 76.9 µM.

For the molecule `CCn1c(C(C)NC(=O)c2ccc(OC)c(OC)c2)nc2ccccc21` (stereo not given), the Potency was inactive: > 76.9 µM.

As to `COC(=O)c1ccc2[nH]c(C)c(CN3CCCC3)c(=O)c2c1`, the Potency was inactive: > 76.9 µM.

Consider `Cn1cccc1CNC(=O)Nc1ccc(Cl)c(Cl)c1`, for which the Potency was inactive: > 76.9 µM.

With `CCOc1ccccc1NC(=O)CCS(=O)(=O)c1cccc2nonc12`, the Potency was inactive: > 76.9 µM.

Take `O=c1[nH]cnc2scc(-c3ccc(F)cc3)c12`: the Potency was inactive: > 76.9 µM.

On to `COc1ccc(-c2noc(CSc3nc(N)c(-c4ccccc4)c(=O)[nH]3)n2)cc1OC`, for which the Potency is inactive: > 76.9 µM.

For the molecule `Cc1nc2ccccn2c1C(=O)NCc1ccc2c(c1)OCO2`, the Potency is inactive: > 76.9 µM.

With `CCC(=O)N1CCc2cc(S(=O)(=O)CCC(=O)NCc3cccs3)ccc21`, the Potency was inactive: > 76.9 µM.

`COC1CCCCC1NS(=O)(=O)c1ccccc1` (stereo not given): the Potency is inactive: > 76.9 µM.

Consider `CCCOC(=O)c1ccc(Oc2c(-c3ccc(O)cc3O)n[nH]c2C)cc1`, for which the Potency result was “inactive”.

On to `O=C1OC(c2ccc(Br)cc2)=N/C1=C\N1CCCCC1`, for which the Potency was inactive: > 76.9 µM.

On to `Cc1nn(-c2ccccn2)c2c1-c1nc(N)ncc1CC2`, for which the Potency was inactive: > 76.9 µM.

`O=C1C(Cl)=C(NCC2CCCO2)C(=O)N1c1ccccc1` (stereo not given): the Potency is inactive: > 76.9 µM.

As to `CCOc1cc(-c2noc(CCCC(N)=O)n2)cc(Br)c1OC`, the Potency is inactive: > 76.9 µM.

On to `CCCn1c(SCC(=O)NCc2ccco2)nc2c1c(=O)n(C)c(=O)n2C`, for which the Potency is inactive: > 76.9 µM.

Turning to `COc1ccc(N2C(=O)CCC(C(=O)N3CCCCC3)C2c2ccc(F)cc2)cc1` (stereo not given), the Potency was inactive: > 76.9 µM.

Take `COc1ccc(CC(=O)OCc2nnc(C3COc4ccccc4O3)o2)cc1OC` (stereo not given): the Potency was inactive: > 76.9 µM.

For `CCN(CCCCN1C(=O)c2ccccc2C1=O)c1ccc2c(c1)C(=O)N(C)C2=O`, the Potency was inactive: > 76.9 µM.

Take `CCn1c(SCC(=O)Nc2cccc(NC(=O)c3cccs3)c2)nnc1-c1ccncc1`: the Potency was inactive: > 76.9 µM.

As to `Cc1ccccc1-n1c(SCC(=O)N2CCN(c3ccccc3)CC2)nnc1-c1ccncc1`, the Potency was inactive: > 76.9 µM.

Take `Nn1c(COc2ccccc2)nnc1SCc1cc(=O)[nH]c2ccccc12`: the Potency was inactive: > 76.9 µM.

With `COc1ccc(S(=O)(=O)Nc2ccc(C)cc2)cc1OC`, the Potency was inactive: > 76.9 µM.

Consider `O=C1CC(C(=O)NCc2ccccc2)N=C(N2CCCCC2)N1` (stereo not given), for which the Potency is inactive: > 76.9 µM.

Take `O=C(CCN1C(=O)COc2ccccc21)NCCN1CCN(c2ccccc2F)CC1`: the Potency was inactive: > 76.9 µM.

In the case of `O=C(NCc1ccccn1)C1CCN(S(=O)(=O)c2ccccc2)CC1`, the Potency is inactive: > 76.9 µM.

`Cc1cccc(-n2c(N)cc(=O)[nH]c2=S)c1C`: the Potency was inactive: > 76.9 µM.

On to `CCCCOc1nc(N)nc(-c2ccccc2)n1`, for which the Potency was inactive: > 76.9 µM.

`CCC(c1nnc(SCC(=O)Nc2nnc(-c3ccccc3)o2)o1)N(C)C` (stereo not given): the Potency is inactive: > 76.9 µM.

With `O=S(=O)(Nc1ccncc1)c1ccccc1`, the Potency is inactive: > 76.9 µM.

With `Cc1ccc(Cn2ccc(NC(=O)c3cc(-c4ccco4)on3)n2)cc1`, the Potency was inactive: > 76.9 µM.

Consider `CCOC(=O)c1c(NC(=O)c2noc3c2CCCC3)sc(C)c1C`, for which the Potency was inactive: > 76.9 µM.

With `CCOC(=O)CSc1nnc(CNC(=O)c2ccc(OC)cc2OC)n1C`, the Potency was inactive: > 76.9 µM.

Take `CC(=O)c1cn(CC(=O)NCc2ccc3c(c2)OCO3)c2ccccc12`: the Potency is inactive: > 76.9 µM.

For the molecule `COc1ccccc1C(=O)N1CCN(C(=O)COc2cccc(C)c2)CC1`, the Potency is inactive: > 76.9 µM.

Consider `COc1ccc2c(c1)CCC(C)N2S(=O)(=O)c1ccc(C2CNC(=O)C2)cc1` (stereo not given), for which the Potency is inactive: > 76.9 µM.

Regarding `Cc1cc(NC(=O)CSc2ncnc3sc4c(c23)CCC(C)C4)no1` (stereo not given), the Potency is inactive: > 76.9 µM.

`COc1ccc(C(CC(=O)O)NC(=O)c2cccs2)cc1` (stereo not given): the Potency is inactive: > 76.9 µM.

For the origin of these results see PubChem BioAssay AID360 (National Center for Advancing Translational Sciences (NCATS), 2006).
